Measurements taken from publication PMC4336329 (PLoS ONE, 2015).
In all, about 310,000 compounds went through this assay and about 14,000 (4.5%) showed an effect of 50% or more. The effect is printed as a negative number. Some of the results follow.

Target: human ether-à-go-go-related gene (hERG) potassium channel (human, UniProt Q12809)
Test: primary screen, population patch clamp on CHO cells stably expressing hERG
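Further: peak tail current of the secondary pulse compared with the same well before compound.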

Sequence of human ether-à-go-go-related gene (hERG) potassium channel (Q12809 whole entry, looked up): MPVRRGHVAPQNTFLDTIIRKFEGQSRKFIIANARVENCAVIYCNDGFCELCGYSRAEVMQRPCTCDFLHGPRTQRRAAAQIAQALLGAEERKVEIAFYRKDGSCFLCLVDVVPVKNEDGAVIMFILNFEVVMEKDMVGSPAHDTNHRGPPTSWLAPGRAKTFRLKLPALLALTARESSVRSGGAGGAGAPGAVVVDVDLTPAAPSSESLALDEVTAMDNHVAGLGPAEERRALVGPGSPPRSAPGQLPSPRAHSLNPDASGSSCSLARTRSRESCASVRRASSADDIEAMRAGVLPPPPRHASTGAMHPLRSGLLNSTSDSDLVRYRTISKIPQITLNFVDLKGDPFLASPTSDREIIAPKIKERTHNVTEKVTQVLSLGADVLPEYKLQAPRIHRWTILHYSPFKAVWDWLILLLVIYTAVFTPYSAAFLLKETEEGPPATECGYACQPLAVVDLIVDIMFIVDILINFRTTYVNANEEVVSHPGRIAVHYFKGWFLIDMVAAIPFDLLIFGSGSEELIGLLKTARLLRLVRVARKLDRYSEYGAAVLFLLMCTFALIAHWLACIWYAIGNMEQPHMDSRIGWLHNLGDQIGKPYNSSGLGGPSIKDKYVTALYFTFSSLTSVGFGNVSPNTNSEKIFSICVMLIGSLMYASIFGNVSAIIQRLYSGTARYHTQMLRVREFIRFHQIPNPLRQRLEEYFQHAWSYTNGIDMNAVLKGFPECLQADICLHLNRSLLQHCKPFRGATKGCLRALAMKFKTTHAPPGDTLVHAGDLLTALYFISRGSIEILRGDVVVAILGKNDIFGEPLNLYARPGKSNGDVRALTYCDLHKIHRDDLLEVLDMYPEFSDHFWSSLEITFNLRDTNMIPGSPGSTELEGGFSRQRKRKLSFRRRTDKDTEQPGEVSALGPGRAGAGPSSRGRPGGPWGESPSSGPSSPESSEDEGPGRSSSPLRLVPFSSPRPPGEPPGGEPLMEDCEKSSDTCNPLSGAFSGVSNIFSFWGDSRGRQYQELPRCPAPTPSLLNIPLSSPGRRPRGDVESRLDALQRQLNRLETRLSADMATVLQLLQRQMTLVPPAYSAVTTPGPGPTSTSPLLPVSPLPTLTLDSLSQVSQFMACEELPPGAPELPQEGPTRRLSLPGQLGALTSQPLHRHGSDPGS

SMILES | hERG current change (%, negative = inhibition) at 10uM
CCc1cc2c(N[C@@H](C)C(=O)O)ncnc2s1 | 1.08%
CCNC(=O)COc1ccc(F)cc1C(=O)c1cnn(-c2ccccc2)c1 | -15.3%
Cc1ccc(C)c(S(=O)(=O)Nc2ccc(C(=O)N3CC(C)OC(C)C3)cc2)c1 (stereo not shown) | -5.28%
CCOC(=O)n1c(O)c(N=NC(N)=S)c2cc(C)ccc21 | 16.7%
CCC1CCCCN1Cc1nc2c(c(=O)n(C)c(=O)n2C)n1CC(C)C (stereo not shown) | 1.79%
COc1ccc(N2C(=O)c3ccccc3NC23CCC(C)CC3)cc1 (stereo not shown) | 4.35%
Cc1ccc(NC(=O)CSCC(=O)Nc2ccc(S(=O)(=O)N3CCCC3)cc2)cc1 | -19.9%
O=C(Nc1ccccc1F)c1cc2nc(C(F)F)cc(C(F)F)n2n1 | -5.76%
Cn1c(=O)[nH]c(=O)c2c1[nH]c(=S)n2Cc1ccccc1 | 17.5%
CN(C)C(=O)c1c2c(nc3ccccc13)-c1ccccc1CC2 | -7.35%
O=C1CSC(=Nc2ccc(O)cc2)N1c1ccc(O)cc1 | 4.11%
COc1ccc(/C=N/n2c(-c3cccs3)n[nH]c2=S)cc1 | 11.6%
O=C(O)C(=O)O.S=C(NCC1CCCO1)N1CCN(Cc2ccccc2)CC1 (stereo not shown) | -1.99%
COc1ccc(NC(=O)N2CCc3ccccc32)cc1 | 1.67%
Cc1cc(=O)[nH]c2cc(O)ccc12 | -5.54%
Cc1ccc(-n2c(-c3cccs3)nc3ccccc3c2=O)cc1 | 11.1%
CC(Oc1ccc(Br)cc1)C(=O)Nc1ccc(S(=O)(=O)Nc2nccs2)cc1 (stereo not shown) | 5.19%
Nc1c(-c2ccccc2)c(CN2CCOCC2)nn1-c1ccc(F)cc1 | -20.3%
C=CCOC(=O)Nc1snnc1C | -1.38%
Cc1cccc2cc(C#N)c(NCCNC(=O)COc3ccccc3)nc12 | 30.8%
COc1ccc(/C=N/NC(=S)Nc2ccccc2)cc1COc1cccc(C)c1C | 19.5%
O=C(CSCc1ccccc1Cl)NNC(=O)c1ccccc1 | -3.8%

SMILES | hERG current change (%, negative = inhibition) at 10uM
O=C(NC(=S)Nc1ccccc1N1CCCCC1)c1cccs1 | 6.21%
Cc1ccccc1C(=O)NCCc1nnc(SCC(=O)Nc2nc(-c3ccccc3)cs2)n1C | 7.36%
O=C(CN1C(=O)CCC1=O)Nc1ccc2c3c(cccc13)CC2 | -15.2%
COc1ccc(NC(=O)c2cccnc2Nc2ccc(OC)cc2)cc1 | 13.6%
O=C1CCC(=O)N1CN(C(=O)c1ccco1)c1ccc(Cl)c(Cl)c1 | 3.11%
O=C(O)Cn1cc(/C=C2\C(=O)NC(=O)N(Cc3ccco3)C2=O)c2ccccc21 | 9.37%
COc1ccccc1C(=O)NNC(=O)C(=O)NC1CCCCC1 | 22%
CC(=O)Nc1ccc(C(=O)NCC(=O)OCc2c(F)cccc2Cl)cc1 | 15.7%
Cc1nn(Cc2ccccc2Cl)c2sc(C(=O)NCCCn3ccnc3)cc12 | -82.6%
COc1ccc(NC(=O)Nc2cc(C)cc(C)c2)cn1 | 8.94%
CO/N=C(\Cn1ncc(NC2CCCCC2)c(Br)c1=O)c1ccc(Cl)cc1 | -6.29%
Cc1n[nH]c(=O)c2c(NC(=O)CSc3nncs3)oc(C)c12 | 15.7%
CC(C)(C#CC(O)(c1ccccc1)c1ccccc1)N1CCCCC1 | -27.2%
CCc1nc(N2CCNCC2)c(C#N)c2c1CSC(C)(C)C2 | 2.02%
O=C(Nc1c(F)cc(F)cc1Br)c1cc(-c2ccc(O)cc2)on1 | -19.3%
COc1ccc(C(=O)NCC(c2ccc(F)cc2)N2CCOCC2)cc1S(=O)(=O)N1CCCC1 (stereo not shown) | 1.8%
CCc1nc(SCC(=O)NCc2ccc(F)cc2)c2c(=O)n(C)c(=O)n(C)c2n1 | 6.45%
CC(=O)OCC(=O)Nc1ccccc1C | 5.52%
Cc1ccc(OCC(=O)Nc2ccc(N3CCCC3)cc2)cc1C | -1.44%
COc1cc(/C=N/NC(=O)c2cccc([N+](=O)[O-])c2)ccc1OCc1ccc(C)cc1 | -2.21%
O=S(=O)(c1cccs1)N1CCC(Cc2ccccc2)CC1 | 6.58%
CCC1CCCCN1C(=O)CSc1nc2ccsc2c(=O)n1Cc1ccccc1 (stereo not shown) | -78.3%

SMILES | hERG current change (%, negative = inhibition) at 10uM
O=C(COc1ccccc1[N+](=O)[O-])N/N=C/c1ccc[nH]1 | -4.77%
CSc1ncccc1C(=O)N1CCCC(C(=O)c2ccc3ccccc3c2)C1 (stereo not shown) | -19.8%
Brc1ccc2c(c1)OCCOCCOc1cc(Br)ccc1OCCOCCOCCO2 | -4.86%
COc1cccc(CNC(=S)Nc2cc(C)ccc2C)c1 | 18.8%
Cc1ccc(CN2CC(C(=O)Nc3ccc(C)cn3)CC2=O)cc1 (stereo not shown) | -3.71%
S=C(NCc1ccncc1)Nc1ccc(Br)cc1Cl | -16.5%
COc1ccc(Nc2oc(COc3ccccc3F)nc2C#N)cc1 | -10.5%
CCc1nn(C(C)C(=O)NCc2cccc(OC)c2)c(=O)c2cc3occc3n12 (stereo not shown) | -15.1%
CCc1ccc(/C(C)=N/NC(=O)c2ccc(-n3cnnn3)cc2)cc1 | -23.1%
COC(=O)c1c(-c2c(Cl)cccc2Cl)noc1C(=O)NNC(=O)N(C)C | 4.36%
Cc1ccc(-c2nc(NCc3ccco3)c3ccccc3n2)cc1 | 4.65%
Cc1ccc(-n2c(SCC(=O)NCC3CCCO3)nc3ccccc3c2=O)cc1C (stereo not shown) | -11.5%
COc1ccc(Cn2c(=S)[nH]c3ccccc3c2=O)cc1 | 20.2%
O=C(NCCN1CCCCC1)Nc1cccc(C(F)(F)F)c1 | -49.4%
O=C(C1CC1)N1CCc2cc(Br)cc(S(=O)(=O)NCCCN3CCCC3)c21 | -9.78%
COc1ccc(NC(=O)NCCc2ccc(Cl)cc2)cc1OC | 11.3%
O=c1cc(CCl)nc2sc3ccccc3n12 | 8.04%
CN(C)CCCN(C(=O)c1ccc(S(=O)(=O)N2CCCCCC2)cc1)c1nc2c(F)cc(F)cc2s1.Cl | -69.6%
COc1ccc(N(CC(=O)NCC2CCCO2)S(=O)(=O)c2ccccc2)cc1OC (stereo not shown) | 14%
Cc1ccc(C(=O)NNC(=O)CCn2nnc3ccccc32)cc1 | 30.2%
Cc1cccc([C@@H]2[C@@H]3C(=O)N(Cc4ccccc4)C(=O)[C@@H]3[C@]3(C)C(=O)N(c4ccc(Br)cc4)C(=O)N23)c1 | 1.53%
N#C/C(=C\C=C\c1ccccc1)C(=O)NCc1ccco1 | -3.85%

SMILES | hERG current change (%, negative = inhibition) at 10uM
COCCCN(Cc1ccco1)C(=O)Cn1ncc2c(=O)oc3ccc(C)cc3c21 | -49.6%
CCC(C)Sc1nc2c(c(=O)[nH]c(=O)n2C)n1CCc1ccccc1 (stereo not shown) | -17%
Cc1ccccc1N1CC(O)(c2ccccc2)[N+]2=C1SCC2.[Br-] (stereo not shown) | -19.5%
C=CCN(C1CCCCC1)S(=O)(=O)c1ccc2c(c1)oc(=O)n2C | -25.1%
CCc1c(O)nc(SC2CC(=O)N(c3ccccc3)C2=O)[nH]c1=O (stereo not shown) | 12.6%
Cc1c(C(=O)N2CCN(Cc3ccc4c(c3)OCO4)CC2)sc2ncnc(N3CCN(c4ccccc4)CC3)c12 | 7.82%
CSc1ccccc1NC(=O)CN(c1ccccc1Br)S(C)(=O)=O | -2.21%
COc1ccc2[nH]c(=O)c(CN(Cc3cccs3)Cc3nnnn3Cc3ccccc3)cc2c1 | 12.5%
O=C(Nc1ccccn1)c1ccc(Br)c(S(=O)(=O)N2CCCCC2)c1 | 10.9%
CCCCCCCC(=O)NN=C1CCN(Cc2ccccc2)CC1 | 3.13%
CCn1c2ccccc2c2cc(NC(=O)COC(=O)c3cccc(S(=O)(=O)NC)c3)ccc21 | 6.89%
N#CCCN(CCC#N)C(=S)NC1CC2C=CC1C2 (stereo not shown) | 23.3%
CCOC(=O)c1cc(NC(=O)N(C(C)C)C2CCCCC2)c(C)nc1C | -8.08%
CC(C)(C)c1ccc(OCC(=O)NC2CCS(=O)(=O)C2)cc1 (stereo not shown) | -21.8%
COc1ccc(N(CC(=O)N2CCCCCC2)S(=O)(=O)c2ccccc2[N+](=O)[O-])c(OC)c1 | -18.2%
CSc1ncccc1C(=O)OCC(=O)Nc1ccc2c(c1)CCC2 | 9.67%
CCc1cc2c(COC(=O)c3cccc(S(C)(=O)=O)c3)cc(=O)oc2cc1O | 6.7%
CN(CC(=O)NCc1ccncc1)S(=O)(=O)c1cc(Cl)ccc1Cl | -24.2%
COc1ccc(C2C(C#N)=C(N)N(c3ccccc3)C3=C2C(=O)CCC3)cc1Cn1cc([N+](=O)[O-])cn1 (stereo not shown) | -30.2%
Cc1ccc(C(=O)NCc2ccc3c(c2)CCO3)cc1C | -10.8%
Cc1ccc(NC(=O)c2ccc(CSc3ccccn3)cc2)cc1 | 19.3%
FC(F)(F)c1cccc(NCc2cn3cccnc3n2)c1 | -11.4%
